From PubChem BioAssay (NCI) come the findings set out here.

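Grown in 96-well plates, cells were treated for 48 hours with each compound at five concentrations. Insufficient inhibition: endpoint recorded as highest concentration tested. GI50 is the concentration that inhibits growth by half. TGI denotes the concentration required for complete inhibition of growth.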

By TGI is commonly meant the concentration at which net growth stops. One may read the GI50 as the concentration that inhibits growth by half.

This assay deals with NCI-H322M lung. The assay is described as follows: DTP human tumour cell line panel, 48 h.
`COc1cc2c(cc1OCCCC(=O)Nc1cc(C(=O)Nc3cc(C(=O)Nc4cc(C(=O)NCCCN(C)C)n(C)n4)n(C)n3)n(C)n1)N=CC1CCCN1C2=O` (configuration not stated) returned a TGI of 53.5 µM.

For the compound `O=Cc1ccccc1OCCOc1cc(OCCOc2ccccc2C=O)c(OCCOc2ccccc2C=O)cc1OCCOc1ccccc1C=O`, the TGI was more than 100 µM.

The compound `O=C(CSCC(=O)N/N=C/c1cccs1)N/N=C/c1cccs1` displayed a TGI of more than 100 µM.

For the compound `O=C(/C=C/C12c3ccccc3C(c3ccccc31)C1C(=O)N(c3ccccc3)C(=O)C12)c1ccccc1` (configuration not stated), the GI50 was 2.88 µM and the total growth inhibition concentration (TGI) is more than 100 µM.

In turn, `COc1ccc(NC(=O)C(=O)Cc2nc3ccc([N+](=O)[O-])cc3[nH]c2=O)c(OC)c1` returned a TGI of more than 100 µM.

Compound `Cc1cccc2c1[nH]c1[nH]c(=O)[nH]c(=O)c12` returned a concentration for total growth inhibition (TGI) of more than 100 µM.

With `CCc1c(Cc2cccc3ccccc23)n2c(nc1=O)SCC2OCCO` (configuration not stated), the TGI was more than 100 µM.

`COc1cccc(CC(C)NCC(O)c2ccc(O)c(O)c2)c1` (configuration not stated) returned a TGI of more than 100 µM.

For the compound `CCOC(=O)C(NC(=O)N(C1=NCC(C)S1)C1CCCCC1)(OC)C(F)(F)F` (configuration not stated), the TGI was more than 100 µM.

Turning to `Cc1ccncc1.F[B-](F)(F)F.[Pt+2].c1ccc(-c2cccc(-c3ccccn3)n2)nc1`, the TGI was found to be 20.4 µM.

Regarding `Cn1nc2n(c1=O)CCCN2`, the TGI is more than 100 µM.

With `N#CC(C#N)=C1C(C#N)=C(N)NC12OCCO2`, the TGI was more than 100 µM.

`O=C(Nc1cccc([N+](=O)[O-])c1)C(=O)C(C(=O)c1ccccc1-c1ccccc1)C1OC(=O)c2ccccc21` (configuration not stated) came in with a TGI of 56.1 µM.

The compound `CC(C)=CCC[C@@H](C)C1=C(Nc2ccccc2Cl)C(O)=C(C)C(=O)C1=O` came in with a TGI of 26.1 µM.

`COc1ccc(N(C)C(=O)N(C)c2ccc([N+](=O)[O-])cc2)cc1` showed a TGI of more than 100 µM.

With `COc1ccc2c(c1)C(=O)c1c-2n(CCCN=[N+]=[N-])c(=O)c2cc(N(C)C)ccc12`, the GI50 was more than 100 µM and the TGI was more than 100 µM.

`CC(C)C1(O)C(c2ccccc2)=C(c2ccccc2)C(c2ccccc2)=C1c1ccccc1`: the TGI was more than 100 µM.

Turning to `O=[N+]([O-])c1ccc(S(=O)Cc2ccccc2)c([N+](=O)[O-])c1` (configuration not stated), the GI50 was 16.4 µM and the TGI was found to be 31.1 µM.

For `Cc1c(S(C)(=O)=O)c(-c2cc(F)cc(N3CCN(c4ccc(NS(=O)(=O)c5ccc(N[C@H](CCN6CCC(C(=O)OCCCP(=O)(O)O)CC6)CSc6ccccc6)c(S(=O)(=O)C(F)(F)F)c5)cc4)CC3)c2)c(-c2ccc(Cl)cc2)n1C(C)C`, the GI50 was more than 100 µM and the TGI is more than 100 µM.

As for `O=C(c1ccc(Cl)cc1)c1ccc(OCCCCCCCCCCOc2ccc(C(=O)c3ccc(Cl)cc3)cc2)cc1`, the concentration for total growth inhibition (TGI) was more than 100 µM.

As for `O=C1C=C(NCCNC(=S)Nc2ccccc2)c2nccc3c2c1nc1ccccc13`, the GI50 was 47 µM and the TGI was more than 100 µM.

In turn, `CCCCc1c2c(nc3c1CCc1cc4cc5c(nc4nc1-3)-c1nc3c(c(CCCC)c1CC5)CCCC3)CCCC2` showed a TGI of more than 100 µM.

As to `COc1ccc(N2Cc3cnc(Nc4ccccc4)nc3N([C@@H]3CC[C@@H](O)C3)C2=O)cc1`, the GI50 was 8.35 µM and the TGI is more than 25 µM.

For `C=C1SC(=Nc2c(C)cc(C)cc2C)N(C(=O)c2sc3ccccc3c2Cl)C12CCCCC2`, the GI50 is more than 100 µM and the TGI is more than 100 µM.

`COC(=O)C(C(=O)C(=O)Nc1ccc(C(F)(F)F)cc1[N+](=O)[O-])c1csc(-n2nc(-c3ccccc3)cc2-c2ccccc2)n1` (configuration not stated) gave a TGI of more than 100 µM.

On to `Cc1ccc(C(=O)N/N=C(\N=Nc2cccc(Cl)c2)c2ccc(N(CCC#N)CCC#N)cc2C)cc1`, for which the TGI is more than 100 µM.

Regarding `CSC(CC(=O)O)C(=O)O` (configuration not stated), the TGI was more than 100 µM.

For `CC1CC2CC(=O)CC3(C1)C2CCCN3CCCO` (configuration not stated), the TGI was more than 100 µM.

On to `O=C(c1ccccc1)C1CCCCN1C(=O)c1ccccc1` (configuration not stated), for which the TGI was more than 100 µM.

For `C(=C\c1cccc(/C=C/c2ccccn2)n1)/c1ccccn1`, the TGI was more than 100 µM.

For the compound `CC1(C)OCC(C(O)C2OC(C)(C)OC2C=O)O1` (configuration not stated), the TGI was more than 100 µM.

Take `Cc1ccc(S(=O)(=O)NNC(=O)c2cc(C)ccc2NC(=O)C23CC4CC(CC(C4)C2)C3)cc1`: the TGI came out at 91.1 µM.

In the case of `CCCCS(=O)CCC(N)C(=O)O` (configuration not stated), the TGI is more than 100 µM.

Turning to `CC(=O)/C(=C/n1c(=S)[nH]c2ccccc21)C(=O)Nc1ccccc1C`, the TGI is more than 100 µM.

Regarding `CCOC(=O)c1c(N2CCCC2)ncn(-c2ccccc2)c1=S`, the concentration for total growth inhibition (TGI) is more than 100 µM.

`O=C(Nc1ccc(Cl)cc1Cl)C(=O)C(C(=O)c1ccc2ccccc2c1)C1OC(=O)c2ccccc21` (configuration not stated) showed a TGI of 63.2 µM.

Turning to `O=C(/C=C/c1ccccc1)CC1OC(=O)c2ccccc21` (configuration not stated), the TGI was more than 100 µM.

Turning to `CO/C(=N\N=C\c1cccc(Cl)c1)c1ccncc1`, the TGI was more than 10 µM.

Consider `CCOC(=O)C(=[N+]=[N-])C(=O)Nc1nn2nnnc2c2ccccc12`, for which the TGI was more than 100 µM.

On to `O=C1C(c2c[nH]c3ccccc23)=C(c2c[nH]c3ccccc23)C(=O)N1O`, for which the GI50 was more than 25 µM and the TGI is more than 25 µM.

`Nc1ncnc2c1ncn2C1CCC(COS(N)(=O)=O)C1` (configuration not stated) displayed a concentration for total growth inhibition (TGI) of more than 100 µM.

In turn, `O=CC(O)C(O)C(O)C(O)C(=O)NCCCCCCCCCCCCNC(=O)C(O)C(O)C(O)C(O)C=O` (configuration not stated) yielded a TGI of more than 100 µM.

In the case of `COc1ccc(-c2oc3c(OC)c(OC)c(OC)c(O)c3c(=O)c2OC)cc1OC`, the TGI is more than 100 µM.

The compound `O=[N+]([O-])c1ccc2nc(-c3ccccn3)c(-c3ccccn3)nc2c1` yielded a concentration for total growth inhibition (TGI) of more than 100 µM.

On to `CCCc1c(CC)c(=N)c2ccccc2n1C`, for which the GI50 was more than 100 µM and the TGI was more than 100 µM.

Compound `Clc1ccc(Cc2nc3ccccc3s2)c(Cl)c1` returned a concentration for total growth inhibition (TGI) of 41.7 µM.

The compound `C/C(=N\NC(=S)N1CCCCC1)c1cccc(C)n1` displayed a TGI of 5.53 µM.

In turn, `N=c1oc2ccc3ccccc3c2cc1C(N)=O` displayed a TGI of more than 100 µM.

Regarding `O=Nc1c(-c2c(O)[nH]c3ccc([N+](=O)[O-])cc23)[nH]c2ccc(O)cc12`, the GI50 is 0.454 µM and the TGI was more than 95.7 µM.

`CN(C)c1ccc([O-])cc1.CN(C)c1ccc([O-])cc1.CN(C)c1ccc([O-])cc1.CN(C)c1ccc([O-])cc1.[Ti+4]`: the GI50 was more than 100 µM and the TGI is more than 100 µM.

For the compound `COc1ccc(/C=c2\[nH]c3nc(=O)c(N4CCOCC4)c(N)n3c2=O)cc1`, the TGI is more than 100 µM.

Compound `C=C(CCC(C)C1CCC2C3=C(C(=O)CC21C)C1(C)CCC(=O)[C@@H](C)C1CC3=O)C(C)C(=O)O` (some centres not stated) gave a TGI of more than 100 µM.

In turn, `C[C@@H](O)C(=O)N1[C@@H]2CC3CC[C@]2(CS1(=O)=O)C3(C)C` displayed a TGI of more than 100 µM.

On to `CC[N+](C)(CC)CCC(O)(c1ccccc1)c1ccccc1`, for which the TGI was more than 100 µM.

`COC(=O)C1CCC(=O)N1C(=O)Cc1ccc(OC)cc1` (configuration not stated) registered a TGI of more than 100 µM.

Compound `O=C(O)C1C2CCC(O2)C1C(=O)N1CCCCC1` (configuration not stated) had a TGI of 77.3 µM.

The compound `Nc1nc2c(c(=O)[nH]1)NC(CO)CN2` (configuration not stated) showed a total growth inhibition concentration (TGI) of more than 100 µM.

Regarding `Cc1ccccc1-n1c(C)nc2c1C(=O)c1ccccc1C2=O`, the TGI is more than 100 µM.

Compound `COC(=O)C1C(O)CC(c2ccccn2)N(Cc2ccccc2)C1c1ccccn1` (configuration not stated) registered a TGI of more than 100 µM.

The compound `CCNc1ccc2c(c1)Cc1ccccc1-2` registered a TGI of more than 100 µM.

`COc1nc(N(C)C)nc2c1n(C)c[n+]2C` yielded a TGI of more than 100 µM.

For the compound `Cc1ccc(C(C)(C)C[P+](C)(c2ccccc2)c2ccccc2)cc1`, the TGI was more than 100 µM.

Compound `C/C=C\C(CC(=O)NCCc1cn(C(=O)OCc2ccccc2)c2ccccc12)CC(=O)OC` (configuration not stated) registered a TGI of more than 100 µM.

Compound `CC(=O)Nc1ccc(C(=O)NN2C(=O)C(Cl)C2c2ccc([N+](=O)[O-])cc2)cc1` (configuration not stated) yielded a TGI of more than 100 µM.

The compound `COc1nc2c(c(=O)n1C)N[C@H]1[C@H](OC(C)=O)[C@@H](OC(C)=O)CO[C@H]1N2` showed a TGI of more than 100 µM.

`Nc1cccc2c1C(=O)c1cccc(N)c1C2=O` came in with a TGI of more than 100 µM.

On to `CC(C)CNCC(O)COc1ccc(C(C)(C)c2ccc(OCC(O)CNCC(C)C)cc2)cc1` (configuration not stated), for which the GI50 is 5.17 µM and the TGI was 17.9 µM.

For `O=C(Nc1cccs1)c1c(O)[nH]c(=S)[nH]c1=O`, the TGI was more than 100 µM.

As to `C/C(=C\c1ccccn1)c1ccccn1`, the TGI was more than 100 µM.

For the compound `CN1CCN(c2ccc(NC(=O)c3nc4ccc5[nH]ncc5c4c4c3CCCC4)cc2C(F)(F)F)CC1`, the GI50 was 1.15 µM and the TGI is 3.06 µM.

Consider `CCCCc1cc2c(C)cc(=O)oc2c(O)c1O`, for which the TGI was more than 100 µM.

For `Cc1ccc(S(=O)(=O)NCCNC2=CC(=O)c3nc4ccccc4c4ccnc2c34)cc1`, the GI50 is 16 µM and the TGI is 39.2 µM.

As for `C/C(=N\O)c1cccc(Nc2cc(-n3ccnn3)c3ccccc3n2)c1`, the GI50 was 13 µM and the TGI stood at 34 µM.

The compound `CC(C)=CCC/C(C)=C/CC/C(C)=C/Cc1c(O)c2ccccc2oc1=O` returned a total growth inhibition concentration (TGI) of more than 100 µM.

Consider `FC(F)(F)c1cc(-c2nnc3n2N=C(N2CCCC2)CS3)cc(C(F)(F)F)c1`, for which the GI50 was more than 50 µM and the TGI is more than 50 µM.

On to `COc1ccccc1N=C(N)N/N=C/c1c[nH]c2ccccc12`, for which the TGI was found to be 22.5 µM.
